Hit rate of the full screen: of about 310,000 compounds, about 2,200 (0.71%) showed an effect of 50% or more. Effects have a minus sign here. Some of the results follow.
Each compound was assayed against human ether-à-go-go-related gene (hERG) potassium channel (human, UniProt Q12809) (assay: primary screen, population patch clamp on CHO cells stably expressing hERG).
Chain of human ether-à-go-go-related gene (hERG) potassium channel (Q12809 whole entry, looked up): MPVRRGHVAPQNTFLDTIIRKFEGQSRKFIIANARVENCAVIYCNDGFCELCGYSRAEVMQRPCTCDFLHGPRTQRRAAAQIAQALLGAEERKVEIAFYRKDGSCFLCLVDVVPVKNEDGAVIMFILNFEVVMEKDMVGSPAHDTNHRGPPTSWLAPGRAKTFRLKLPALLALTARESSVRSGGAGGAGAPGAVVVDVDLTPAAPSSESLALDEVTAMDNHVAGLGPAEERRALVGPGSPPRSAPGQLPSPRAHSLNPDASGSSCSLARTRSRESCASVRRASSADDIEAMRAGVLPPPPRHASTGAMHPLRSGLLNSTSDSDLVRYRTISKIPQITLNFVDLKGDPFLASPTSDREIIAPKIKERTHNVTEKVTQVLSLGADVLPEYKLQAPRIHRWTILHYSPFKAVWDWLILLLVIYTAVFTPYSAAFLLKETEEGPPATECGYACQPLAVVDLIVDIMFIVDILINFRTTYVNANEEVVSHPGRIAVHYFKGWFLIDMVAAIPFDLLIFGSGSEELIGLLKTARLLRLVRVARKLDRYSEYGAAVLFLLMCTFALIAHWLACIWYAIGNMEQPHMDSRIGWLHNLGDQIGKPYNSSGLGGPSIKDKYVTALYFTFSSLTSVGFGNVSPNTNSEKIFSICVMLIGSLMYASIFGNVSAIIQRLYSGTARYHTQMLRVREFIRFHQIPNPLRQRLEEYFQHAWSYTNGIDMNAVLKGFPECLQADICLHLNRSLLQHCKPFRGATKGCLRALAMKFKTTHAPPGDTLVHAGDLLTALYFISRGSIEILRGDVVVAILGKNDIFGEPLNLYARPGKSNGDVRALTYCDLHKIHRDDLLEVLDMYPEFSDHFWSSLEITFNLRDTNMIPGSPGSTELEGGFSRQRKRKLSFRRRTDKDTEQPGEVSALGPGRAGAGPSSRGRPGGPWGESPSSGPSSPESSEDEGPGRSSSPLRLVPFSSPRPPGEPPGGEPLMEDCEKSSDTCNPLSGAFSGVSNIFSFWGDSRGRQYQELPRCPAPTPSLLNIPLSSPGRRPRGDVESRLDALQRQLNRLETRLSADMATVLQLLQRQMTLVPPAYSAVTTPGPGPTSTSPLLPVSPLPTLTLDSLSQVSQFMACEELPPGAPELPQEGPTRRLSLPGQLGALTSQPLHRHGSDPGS

Going from `N/C(Cc1ccc([N+](=O)[O-])cc1)=N\OC(=O)C(c1ccccc1)c1ccccc1` to `O=C(Nc1ccccc1)c1cccc(S(=O)(=O)Oc2ccc([N+](=O)[O-])cc2)c1`, the “hERG current change (%, negative = inhibition) at 1uM” value falls from -33% to -39%.

Going from `COc1ccc(CCNC(=O)COc2cc(C)cc3oc(=O)cc(C)c23)cc1OC` to `COc1ccc(CCC(=O)NC2=NCCS2)cc1OC`, the “hERG current change (%, negative = inhibition) at 1uM” value rises from 5.21% to 8.4%.

First: COc1ccc(-c2[nH]ncc2CN(C)CCN2CCOCC2)cc1F
Second: COc1ccccc1CC(=O)Nc1ccc(S(=O)(=O)N2CCOCC2)cc1
The “hERG current change (%, negative = inhibition) at 1uM” value of the first is lower: 13.9% for the first, 17.7% for the second.

Compared with `O=[N+]([O-])c1cc(-c2n(-c3ccccn3)c3ccccc3[n+]2-c2ccccn2)ccc1Cl.[I-]`, `Clc1ccccc1Oc1cnc2ccccc2n1` is lower in “hERG current change (%, negative = inhibition) at 1uM” value: 6.8% for the first, 6.59% for the second.

Going from `CCOC(=O)C1=C(N)OC2=C(C(=O)CC(C)(C)C2)C1c1ccoc1` (stereo not drawn) to `CSc1nc2ncc3c(n2n1)CC(C)(C)CC3=O`, the “hERG current change (%, negative = inhibition) at 1uM” value rises from -21% to 3.97%.

Going from `CC(CCCCCCCCC(=O)O)N(CCO)C(=O)OC(C)(C)C` (stereo not drawn) to `COC(=O)CCCCCNc1ccc(C(=O)OC)cc1N`, the “hERG current change (%, negative = inhibition) at 1uM” value falls from 9.6% to 3.37%.

First: CN(C)c1ccc(CNC(=O)c2ccc(CNc3c(N4CCCCC4)c(=O)c3=O)cc2)cc1
Second: CCCNC(=O)c1ccc(N2CC3CC(C2)c2cccc(=O)n2C3)c(NC(=O)Nc2ccc(CC)cc2)c1 (stereo not drawn)
The “hERG current change (%, negative = inhibition) at 1uM” value of the first is higher: 9.94% for the first, -56.1% for the second.

Compared with `Cc1cc(C(=O)COC(=O)Cc2ccc(Br)cc2)c(C)n1C`, `Cc1cc(Br)ccc1NC(=O)CNC(=O)COc1ccccc1C` is lower in “hERG current change (%, negative = inhibition) at 1uM” value: 16.6% for the first, 6.77% for the second.

Compared with `CCOc1ncccc1C(=O)OCc1ccc(C(=O)OC)o1`, `COc1cccc(CNC(=O)CN(C)S(=O)(=O)c2cccc3cccnc23)c1` is higher in “hERG current change (%, negative = inhibition) at 1uM” value: 5.37% for the first, 9.89% for the second.

Compared with `CCC(C)NC(=O)C(CCSC)NC(=O)c1ccccc1` (stereo not drawn), `Cc1cc(C)nc(NC(=S)NC(=O)c2ccccc2)n1` is higher in “hERG current change (%, negative = inhibition) at 1uM” value: 8.78% for the first, 15.2% for the second.

Compared with `O=[N+]([O-])c1ccc(-c2ncc(-c3ccc(Br)cc3)o2)cc1`, `Cc1ccc(C(=O)N/N=C\c2ccc(-c3ccc(Cl)cc3)o2)cn1` is lower in “hERG current change (%, negative = inhibition) at 1uM” value: 15.6% for the first, 4.45% for the second.

First: CC12CN(Cc3ccccc3)CC(C)(CN(Cc3ccccc3)C1)C2=NO
Second: Cc1c(OCc2ccccc2)c(=O)ccn1Cc1ccc(F)cc1
The “hERG current change (%, negative = inhibition) at 1uM” value of the first is lower: -9.72% for the first, 7.76% for the second.

First: CN(C)CCCNC(=O)c1ccc(Cl)c(S(=O)(=O)N(C)c2ccccc2)c1.Cl
Second: O=C(COc1ccccc1Cl)Nc1cccc(S(=O)(=O)NC2=NCCCCC2)c1
The “hERG current change (%, negative = inhibition) at 1uM” value of the first is lower: -0.935% for the first, 14.6% for the second.

Going from `CC1CCC2C(C)C(=O)OC3OC4(C)CCC1C32OO4` (stereo not drawn) to `CCC(C)(C(=O)NC1CCCC1)N(C(=O)CNC(C)=O)c1ccccc1` (stereo not drawn), the “hERG current change (%, negative = inhibition) at 1uM” value falls from 12% to 7.61%.

First: CCN1CCN(c2nc(-c3ccncc3)nc3ccccc23)CC1
Second: C=CCc1ccccc1OCC(O)CN1CCN(c2ccc(OC)cc2)CC1.Cl (stereo not drawn)
The “hERG current change (%, negative = inhibition) at 1uM” value of the first is lower: -75.6% for the first, -27.3% for the second.

First: Cc1ccc(S(=O)(=O)CCC(=O)OCC(=O)NC(C)c2ccccc2)cc1 (stereo not drawn)
Second: O=C(CNS(=O)(=O)c1ccc2ccccc2c1)OCC(=O)c1ccc(Br)s1
The “hERG current change (%, negative = inhibition) at 1uM” value of the first is lower: 15.4% for the first, 15.9% for the second.

First: CSc1ncccc1C(=O)N1CCN(S(=O)(=O)c2cc(C)ccc2C)CC1
Second: Cc1ccc(S(=O)(=O)N2CCN(C(=O)C(C)Cn3cncn3)CC2)cc1C (stereo not drawn)
The “hERG current change (%, negative = inhibition) at 1uM” value of the first is lower: 6.27% for the first, 10.8% for the second.

First: CC(C)NS(=O)(=O)c1ccc(OCC(=O)NCc2ccco2)cc1
Second: O=C(Nc1ccc(S(=O)(=O)Nc2ccccc2)cc1)C1CC1
The “hERG current change (%, negative = inhibition) at 1uM” value of the first is higher: 12.9% for the first, 3.76% for the second.

Going from `CCc1nccn1C(=O)c1cnn2c(C(F)F)cc(-c3ccccc3)nc12` to `CC(=O)CSc1nc(C(F)(F)F)cc(=O)n1-c1ccccc1`, the “hERG current change (%, negative = inhibition) at 1uM” value falls from 18.1% to 13.7%.

Going from `CCCC1C(c2ccc(OC)cc2)C(C#N)(C#N)C2(C#N)CC1(N)NC2=O` (stereo not drawn) to `COc1ccc(-c2cc(C3CCNCC3)[nH]n2)cc1`, the “hERG current change (%, negative = inhibition) at 1uM” value rises from -6.06% to 13.8%.

First: Cc1ccn(C(C)CC(=O)Nc2ccc(-c3ccno3)cc2)n1 (stereo not drawn)
Second: COc1ccc(NC(=O)n2ncc3c(C)cccc32)cc1
The “hERG current change (%, negative = inhibition) at 1uM” value of the first is lower: 6.45% for the first, 16.9% for the second.

Compared with `O=C(CSc1nnc(SCc2ccc(Cl)cc2)s1)N1CCOCC1`, `O=C(COC(=O)/C=C/c1ccc(S(=O)(=O)N2CCOCC2)cc1)NCc1ccc(Cl)cc1` is higher in “hERG current change (%, negative = inhibition) at 1uM” value: 4.81% for the first, 7.11% for the second.

First: CC(C)CN1CN(Cc2ccco2)CNC1=S
Second: COc1cc(NC(=S)N2CCN(C(=O)c3ccco3)CC2)c(OC)cc1Cl
The “hERG current change (%, negative = inhibition) at 1uM” value of the first is higher: -2.11% for the first, -2.61% for the second.

Compared with `CCc1cccc2c3c([nH]c12)C(CC)(CC(=O)O)OCC3` (stereo not drawn), `CCCN(Cc1cc2cccc(C)c2[nH]c1=O)S(C)(=O)=O` is lower in “hERG current change (%, negative = inhibition) at 1uM” value: 18.3% for the first, -5.19% for the second.

First: COc1ccc(C(=O)Nc2ccccc2C(=O)N/N=C/c2ccncc2)cc1OC
Second: CC(=O)Nc1cccc(C(=O)N/N=C/c2ccccc2F)c1
The “hERG current change (%, negative = inhibition) at 1uM” value of the first is lower: 8.19% for the first, 15.7% for the second.

Going from `CCOC(=O)c1oc2cc(O)c(CC)cc2c(=O)c1-c1cscn1` to `COC(=O)C1=C(C)N(c2ccc(C)cc2)/C(=C/c2ccc(O)cc2)C1=O`, the “hERG current change (%, negative = inhibition) at 1uM” value rises from 16.4% to 18%.

Compared with `Oc1ccc(Cl)cc1/C=N/c1nccs1`, `O=C(O)C1CC=CCC1C(=O)Nc1cccc(Cl)c1` (stereo not drawn) is higher in “hERG current change (%, negative = inhibition) at 1uM” value: 1.8% for the first, 15.8% for the second.

Going from `COc1cc(OC)cc(C(=O)NN2CCCCC2)c1` to `COc1ccc(C2CC(c3ccc4ccccc4c3)=NN2C(=O)CNC2CCCCC2)cc1` (stereo not drawn), the “hERG current change (%, negative = inhibition) at 1uM” value rises from -5.02% to 0.406%.

Compared with `O=S(=O)(Nc1ccc2c(c1)OCCO2)c1ccc(F)cc1`, `Cc1ccc(C)c(NS(=O)(=O)c2ccc3c(c2)NC(=O)CO3)c1` is higher in “hERG current change (%, negative = inhibition) at 1uM” value: -5.09% for the first, 5.73% for the second.

Compared with `Cc1oc(/C=N/NS(=O)(=O)c2ccccc2)cc1Br`, `O=C(Cc1ccccc1)N/N=C/c1cc2c(cc1Cl)OCO2` is higher in “hERG current change (%, negative = inhibition) at 1uM” value: 0.915% for the first, 8.86% for the second.

First: O=C(c1ccccc1)N1CCN(C(=O)c2ccc(OC(F)(F)F)cc2)CC1
Second: COc1ccccc1C(=O)NCCC(=O)N1CCN(c2ccccc2O)CC1
The “hERG current change (%, negative = inhibition) at 1uM” value of the first is lower: -5.25% for the first, 22.8% for the second.

Going from `Cc1cccc(NC(=O)c2sc3nc4c(c(-c5cccs5)c3c2N)CN(C)CC4)c1` to `COC(=O)c1c(NC(=O)c2cccs2)sc2c1CCCC2`, the “hERG current change (%, negative = inhibition) at 1uM” value rises from -10.4% to 12.4%.

Going from `CCOc1ccccc1NC(=O)C1CCCN(S(=O)(=O)c2ccc3c(c2)C(C)(C)C(=O)N3C)C1` (stereo not drawn) to `O=C1CSC(c2cccc([N+](=O)[O-])c2)N1c1ccccc1` (stereo not drawn), the “hERG current change (%, negative = inhibition) at 1uM” value falls from 6.06% to 3.69%.

Going from `COc1ccc(CNC(=O)[C@@H](NC(=O)C2CCN(C(=O)[C@@H](N)CCSC)CC2)C(C)C)cc1` to `CC(NC(=O)C1CCC1)c1ccc(Br)cc1` (stereo not drawn), the “hERG current change (%, negative = inhibition) at 1uM” value falls from 12.6% to -2.26%.

First: C=CCOC(=O)C1=C[C@H](c2ccc3c(c2)OCO3)C[C@H](OCCCCO)O1
Second: Nc1nc(SCC(=O)NCC2CCCO2)[nH]c(=O)c1NC(=O)c1ccco1 (stereo not drawn)
The “hERG current change (%, negative = inhibition) at 1uM” value of the first is lower: -14.2% for the first, 16.2% for the second.

First: O=[N+]([O-])c1ccccc1CNCCO
Second: O=C(NNc1ccc([N+](=O)[O-])cc1)c1ccco1
The “hERG current change (%, negative = inhibition) at 1uM” value of the first is higher: 10.3% for the first, -3.57% for the second.

Going from `Cc1nn(-c2ccccc2)c2c1C1(C(=O)N3c4c(cccc41)C(C)CC3(C)C)C(C#N)=C(N)O2` (stereo not drawn) to `Cc1ccc(C2C(C#N)=C(N)Oc3n[nH]c(-c4ccccc4)c32)o1` (stereo not drawn), the “hERG current change (%, negative = inhibition) at 1uM” value rises from 4.63% to 9.45%.

Compared with `Cc1ccc(CN2CCN(Cc3cnc(C)s3)CC2CCO)cc1` (stereo not drawn), `Cc1ccc(SCC(=O)Nc2ccc(S(=O)(=O)Nc3nccs3)cc2)cc1` is higher in “hERG current change (%, negative = inhibition) at 1uM” value: -0.701% for the first, 14% for the second.

First: CC(=O)c1c(C(C)=O)c(C)n(-c2ccc(C)c(NC(=O)c3ccccc3Cl)c2)c1C
Second: Cc1ccc(C)c(S(=O)(=O)Nc2ccc(O)c3ccccc23)c1
The “hERG current change (%, negative = inhibition) at 1uM” value of the first is higher: 3.92% for the first, -3.49% for the second.

Going from `O=C(Nc1ccc2ccccc2c1)c1ccc2[nH]c(=O)c(=O)[nH]c2c1` to `O=C(Nc1nc2ccccc2[nH]1)c1ccc(Cl)cc1`, the “hERG current change (%, negative = inhibition) at 1uM” value falls from 15.1% to 14.9%.

Going from `CC(C(=O)Nc1cc(C(F)(F)F)ccc1N1CCOCC1)N1C(=O)C2CCCCC2C1=O` (stereo not drawn) to `Cc1[nH]c2ccccc2c1C(=O)C(=O)N1CCC2(CC1)OCCO2`, the “hERG current change (%, negative = inhibition) at 1uM” value rises from 4.58% to 12%.

First: Cc1nc(C)c(-c2csc(Nc3ncccc3C)n2)s1
Second: CCc1noc(C)c1C(=O)Nc1nnc(CC(C)C)s1
The “hERG current change (%, negative = inhibition) at 1uM” value of the first is lower: 9.41% for the first, 12.3% for the second.

Compared with `CCN1C(=S)SC(=O)C1=C1C=C(C)N(CCO)C(C)=C1`, `Cc1n(C)c2cc(Cl)ccc2[n+]1Cc1ccccc1.[I-]` is lower in “hERG current change (%, negative = inhibition) at 1uM” value: 4.65% for the first, 4.11% for the second.

Going from `COc1ccc(-c2oc3ccccc3c2C#CC(C)(C)O)cc1` to `COC(=O)[C@H](CC(C)C)NC(=O)Nc1ccc(F)cc1`, the “hERG current change (%, negative = inhibition) at 1uM” value falls from 13.6% to 13.1%.

Compared with `O=C(NCc1ccncc1)C(=O)NC1CC1`, `CN(C)c1ccc(NC(=S)NCC2CCCO2)cc1` (stereo not drawn) is lower in “hERG current change (%, negative = inhibition) at 1uM” value: 12.1% for the first, 8.44% for the second.

Source: paper PMC4336329 (PLoS ONE, 2015)
